# Reference: the supplement of paper PMC3334620
# Whole data set: some 33,000 sequences, median “E-score (-0.5 to 0.5)” near -0.012, cut for the highest 2% near 0.29. The list shows a part of the results.
# Target: T1, Ybr033w (UniProt P38073)
# T1 sequence: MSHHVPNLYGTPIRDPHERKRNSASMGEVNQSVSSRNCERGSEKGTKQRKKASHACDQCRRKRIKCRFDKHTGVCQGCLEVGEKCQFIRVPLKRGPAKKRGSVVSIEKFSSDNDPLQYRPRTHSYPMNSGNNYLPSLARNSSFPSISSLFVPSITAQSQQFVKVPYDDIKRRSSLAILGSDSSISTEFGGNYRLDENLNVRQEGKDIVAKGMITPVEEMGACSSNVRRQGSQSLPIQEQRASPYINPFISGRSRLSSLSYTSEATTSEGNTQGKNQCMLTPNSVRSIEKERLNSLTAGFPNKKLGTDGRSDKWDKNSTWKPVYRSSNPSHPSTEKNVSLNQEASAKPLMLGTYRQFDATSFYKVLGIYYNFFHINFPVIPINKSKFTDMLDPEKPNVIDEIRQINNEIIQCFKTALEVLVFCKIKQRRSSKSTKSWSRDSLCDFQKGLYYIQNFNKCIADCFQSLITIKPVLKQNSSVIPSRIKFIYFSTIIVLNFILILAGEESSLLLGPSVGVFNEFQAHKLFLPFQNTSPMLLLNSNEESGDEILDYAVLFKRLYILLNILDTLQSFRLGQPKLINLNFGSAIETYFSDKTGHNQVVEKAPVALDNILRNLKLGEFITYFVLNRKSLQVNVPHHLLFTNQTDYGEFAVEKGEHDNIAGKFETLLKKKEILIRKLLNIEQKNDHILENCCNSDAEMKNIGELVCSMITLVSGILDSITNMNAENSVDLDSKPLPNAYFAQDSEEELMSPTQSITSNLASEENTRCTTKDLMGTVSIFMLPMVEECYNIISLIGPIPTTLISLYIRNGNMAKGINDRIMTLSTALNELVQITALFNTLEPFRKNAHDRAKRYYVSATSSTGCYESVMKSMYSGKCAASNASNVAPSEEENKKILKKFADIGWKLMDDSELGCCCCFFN
# Assay: PBM E-score (8-mer binding enrichment) (E-score (-0.5 to 0.5)); higher = stronger / more preferred TF binding; most listed sequences are background and not binding sites
# Settings: protein concentration: 200 nM; construct: GST-full length
# Method in brief: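 The E-score, a modified Wilcoxon-Mann-Whitney statistic, was computed by the Universal PBM Analysis Suite for every ungapped eight-base word pooled with its reverse complement. Scans behind it were normalised with masliner after bound GST-tagged yeast transcription factors were detected with fluorescent anti-GST. The proteins, at about 100-200 nM, had been applied to universal all-10-mer Agilent arrays made double-stranded by primer extension.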
row,Sequence,PBM E-score
1,ATGAATGG,0.0346
2,AGGCTCAA,-0.158
3,ACGCGTAA,-0.0148
4,CGCAATTC,0.0805
5,CAAAGCGC,-0.067
6,CGGACCAG,-0.0706
7,ACACGGCG,0.0146
8,ACCCGGAT,-0.0735
9,CACCACTA,0.0777
10,GTAGATAC,0.116
11,CAGGACCC,-0.213
12,CGCAGTGA,-0.033
13,ATTGTAAC,0.216
14,ACATGACG,-0.0838
15,CCACGAAC,0.0234
16,GCAGGTCC,-0.00694
17,CCAGGACG,-0.233
18,CTTAGTTC,0.00673
19,ACCGTTCT,-0.0931
20,GAATCTAC,0.131
21,GAGTGCAA,0.0873
22,AAGACGGC,-0.176
23,TCAAAGGA,-0.0278
24,ATGTTATG,0.234
25,ACCACAGT,0.0969

row,Sequence,PBM E-score
1,CGCAATGC,-0.247
2,AAGCTGAG,-0.118
3,CCAGACTC,-0.132
4,TATAGTCA,0.214
5,GTATGGTA,0.145
6,CTAAGAGA,-0.0123
7,CCCCTAGG,-0.286
8,CGAGAACC,-0.00458
9,GACAGTAC,-0.0498
10,GAGAGCAC,-0.136
11,AGATCGCG,-0.0557
12,GCAGAAAC,0.172
13,AAGTTACG,0.168
14,ACTAAAAG,0.0382
15,GACACGCA,0.0219
16,GCTAGATA,-0.00395
17,AGGCAAGC,-0.172
18,ATATACTG,0.255
19,ATTTTTTC,0.316
20,CATGATAC,0.125
21,CTGGCTGC,-0.104
22,CGTCCCTA,-0.0874
23,CGAGATTC,0.0885
24,CCTGGTCG,-0.159
25,CCAAGTAG,-0.102

row,Sequence,PBM E-score
1,GAGACCCC,-0.134
2,ATTTCCTG,0.3
3,GGACAGCA,-0.123
4,CTTTTGCC,0.14
5,CGAATGAA,0.0893
6,ACTGCTAG,-0.0711
7,AGGGGGGG,-0.427
8,AGACTTTG,-0.0453
9,CCAAGGAA,0.0112
10,AATTTTGA,0.216
11,GATCAGTA,0.107
12,AAAGTGTC,0.0495
13,ACTATGGA,-0.172
14,GATAAAAA,0.278
15,CCCGTCGA,-0.192
16,AGAGCTTG,-0.0892
17,AGCCCGTA,-0.224
18,ACGAAGAA,0.2
19,ATTCACAG,0.0908
20,ATGAGAGG,-0.258
21,GCCACTCC,-0.107
22,AACGTTTA,0.0786
23,GTACGATA,0.0341
24,ACGCCGGA,-0.173
25,ACGGAATA,0.351

row,Sequence,PBM E-score
1,AAACACCC,0.0312
2,CCCGTCGC,-0.229
3,CAAAATTA,0.182
4,CTGCTTCA,-0.221
5,CCCCAAGG,-0.267
6,AAACATGT,0.254
7,CGTCATAA,-0.0277
8,CCAACTGA,0.00563
9,GTTGCACA,-0.136
10,AAATCCAC,0.135
11,GATTACAA,0.0954
12,GGGACAGA,-0.264
13,ATTGGTCG,-0.0127
14,TCAAGCGA,-0.0198
15,CGCGACGC,-0.16
16,CGTACTCA,0.0846
17,CCGGCGCA,-0.139
18,CAAGACAC,0.0636
19,GGCTTGAC,-0.039
20,ACAATGAA,0.159
21,AGCCGGTA,-0.0534
22,CGCTGTGA,-0.156
23,CCCCCCAG,-0.438
24,AGAGCTCA,-0.134
25,ACCTCATA,0.15

row,Sequence,PBM E-score
1,ATGTGTAG,-0.034
2,GCGATCGC,-0.096
3,GGAGGTAA,0.0225
4,CTCGTGTA,-0.0837
5,CGGTCCTC,-0.166
6,CAGGTGAC,-0.264
7,GGTCATGA,-0.167
8,CGAAACTA,0.115
9,CCTCGCGC,-0.0829
10,AGTGCAAT,0.0955
11,ATCTATGA,0.141
12,AGGCCCCG,-0.349
13,ATCTAGAG,0.0989
14,CGATTTGC,0.0115
15,CCTAGACA,-0.266
16,ATACCTGA,0.203
17,CTCATAAA,0.201
18,AAGTACTG,0.112
19,GTGCCCGA,-0.142
20,ACACGCCG,0.0416
21,AAACACAA,0.21
22,ACATCCCG,0.0445
23,CTTGCGTA,0.139
24,AGACGCGA,0.091
25,AGAGTGAG,-0.0219

row,Sequence,PBM E-score
1,CACCGACA,-0.12
2,AAAAGTAG,0.204
3,AACGGGTA,0.0675
4,CGGAGGAC,-0.272
5,ACTTGTCA,0.00488
6,AGCAAGAC,0.035
7,CACACCTC,-0.14
8,CCAATAGC,-0.0726
9,CTGGACAG,-0.0335
10,ACGTTCCC,-0.163
11,ATTAATTG,0.268
12,CGTCCAAA,0.169
13,AACTTGTG,0.235
14,AGAATCTA,0.187
15,ATGGGAAG,-0.0785
16,AAACGATA,0.213
17,ATTTTAGG,0.097
18,ATAGCGTA,0.0854
19,CTTGCAAG,-0.0818
20,CTGACGAC,-0.076
21,TACCCTGA,-0.0837
22,ATATGTTA,0.178
23,ACAGCATC,0.0726
24,AATGAGGA,-0.0481
25,CATGGTAG,-0.139

row,Sequence,PBM E-score
1,AAAGACGT,0.0945
2,GATACAAA,0.277
3,CAGCGGGG,-0.308
4,GTTTCCTA,0.206
5,ACAGCAAC,0.208
6,ATCCTAAG,0.102
7,AAAACGGA,0.0397
8,CATTGTAC,0.0182
9,CGTATCAC,-0.0656
10,CTTACCCA,0.0469
11,TTCCAGAA,0.294
12,AGGATCAG,-0.166
13,GAGATACA,0.204
14,CTGCAATA,-0.0465
15,ACTTCAGC,-0.0746
16,GATAGGAA,0.0851
17,GGATTACC,0.0245
18,TGTGACAA,-0.00621
19,AAGCGTGG,-0.158
20,AGAACGCT,-0.105
21,GACCTACA,-0.146
22,AAGAAATT,0.281
